B1: Caulobacter ParB omega fusion; a variant is named by its letters at X, in order, B8GW30 (parent)
chain: MESVVVGEPGMSEGRRGLGRGLSALLGEVDAAPAQAPGEQLGGSREAPIEILQRNPDQPRRTFREEDLEDLSNSIREKGVLQPILVRPSPDTAGEYQIVAGERAWRAAQRAGLKTVPIMVRELDDLAVLEIGIIENVQRADLNVLEEALSYKVLMEKFERTQENIAQTIGKSXSHVANXMRLLXLPDEVQSYLVSGELTAXHARAIAAAADPVALAKQIIEGGLSVRETEALARKAPNLSAGKSKGGRPPRVKDTDTQALESDLSSVLGLDVSIDHRGSTGTLTITYATLEQLDDLCNRLTRGI

In all, about 81,000 sequences were measured (“one-hybrid fitness for binding NBS DNA”: median about -0.1, highest 2% from about 0.36 on). This is one part of the list.

The assay covers variants of B1. Nature of the assay: one-hybrid fitness for binding NBS DNA (the Noc-binding site; scaled: cognate 1, non-cognate 0); higher = stronger binding. As to conditions: with NBS DNA site. Summed up:
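The reporter was HIS3, with the binding site 19 bp from the promoter, in E. coli USO used for bacterial one-hybrid selection of Caulobacter ParB libraries with four specificity codons randomised. Growth was on M9 lacking histidine, with 0.1 mM IPTG and 5 mM 3-AT, for 48 hours at 37°C. Illumina sequencing covered plasmids before and after selection; three replicate libraries were pooled and variants with under 10 reads dropped. A fitness score is the log change in variant-to-wild-type read ratio, rescaled to the cognate and non-cognate references.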
As to HTHG, the “one-hybrid fitness for binding NBS DNA” value was at most 0.2.
TYFP: the “one-hybrid fitness for binding NBS DNA” value is at most 0.2.
For SKGV the value was at most 0.2.
For HRKA the value was at most 0.2.
Regarding QYDH, the “one-hybrid fitness for binding NBS DNA” value was at most 0.2.
SCIG: the “one-hybrid fitness for binding NBS DNA” value is at most 0.2.
As for LHKT, the “one-hybrid fitness for binding NBS DNA” value was at most 0.2.
Consider QQRL, for which the “one-hybrid fitness for binding NBS DNA” value was 0.329.
For TSAC the value was at most 0.2; for TTSG, at most 0.2.
In the case of SIGI, the “one-hybrid fitness for binding NBS DNA” value is at most 0.2.
For AIKK the value was at most 0.2.
As to PYRD, the “one-hybrid fitness for binding NBS DNA” value is at most 0.2.
Consider KRFW, for which the “one-hybrid fitness for binding NBS DNA” value was at most 0.2.
Consider YVNI, for which the “one-hybrid fitness for binding NBS DNA” value was at most 0.2.
The same measure for YTPM: at most 0.2; for KKRF: at most 0.2; for MIRN: at most 0.2.
Regarding TKYS, the “one-hybrid fitness for binding NBS DNA” value was at most 0.2.
HNPL: the “one-hybrid fitness for binding NBS DNA” value is at most 0.2.
ESDI: the “one-hybrid fitness for binding NBS DNA” value was at most 0.2.
For APTS the value was at most 0.2; for PPGM, at most 0.2.
For RIVE the value was at most 0.2.
For TIKF the value was at most 0.2.
On to SYCE, for which the “one-hybrid fitness for binding NBS DNA” value was at most 0.2.
Turning to DQRC, the “one-hybrid fitness for binding NBS DNA” value is at most 0.2.
For LELA the value was at most 0.2.
The same measure for QLVT: 0.276; for EGGH: at most 0.2; for PQQR: at most 0.2.
With RWCF, the “one-hybrid fitness for binding NBS DNA” value is at most 0.2.
For the variant PSPS, the “one-hybrid fitness for binding NBS DNA” value is at most 0.2.
As for NRTD, the “one-hybrid fitness for binding NBS DNA” value is at most 0.2.
With HVNV, the “one-hybrid fitness for binding NBS DNA” value was at most 0.2.
For HCEV the value was at most 0.2.
For YQPR the value was at most 0.2; for YSAR, at most 0.2.
As for MGER, the “one-hybrid fitness for binding NBS DNA” value was at most 0.2.
For the variant CFHL, the “one-hybrid fitness for binding NBS DNA” value was at most 0.2.
For LGKA the value was at most 0.2; for SHSY, at most 0.2.
Regarding DTQS, the “one-hybrid fitness for binding NBS DNA” value was at most 0.2.
For PAIL the value was at most 0.2.
As for YSYR, the “one-hybrid fitness for binding NBS DNA” value is at most 0.2.
For LHDT the value was at most 0.2; for PAGL, at most 0.2.
LVWA: the “one-hybrid fitness for binding NBS DNA” value is at most 0.2.
The same measure for HTMS: at most 0.2; for RNYG: at most 0.2; for NHSW: at most 0.2.
With GLKN, the “one-hybrid fitness for binding NBS DNA” value was at most 0.2.
For QATN the value was at most 0.2; for HPIY, at most 0.2.
ECHA: the “one-hybrid fitness for binding NBS DNA” value was at most 0.2.
With EFKR, the “one-hybrid fitness for binding NBS DNA” value is 0.253.
As for CEVL, the “one-hybrid fitness for binding NBS DNA” value was at most 0.2.
The same measure for VTRM: at most 0.2; for QPNI: at most 0.2; for SGLV: at most 0.2.
In the case of RATI, the “one-hybrid fitness for binding NBS DNA” value is at most 0.2.
For QRGW the value was 0.297; for QSPM, at most 0.2; for WYHS, at most 0.2.
For EWYS the value was at most 0.2; for EMKR, 0.241.
In the case of DRVK, the “one-hybrid fitness for binding NBS DNA” value was at most 0.2.
For TRGK the value was at most 0.2; for TVNI, at most 0.2; for IFLD, at most 0.2.
Consider LVTH, for which the “one-hybrid fitness for binding NBS DNA” value was at most 0.2.
On to DGFR, for which the “one-hybrid fitness for binding NBS DNA” value is at most 0.2.
NEGR: the “one-hybrid fitness for binding NBS DNA” value was at most 0.2.
The same measure for APNF: at most 0.2; for RNLM: at most 0.2; for ADLN: at most 0.2.
